The assay deals with Genome polyprotein (dengue virus type 2) (UniProt P29990).
Where [1] appears, read: Thailand/16681/1984, Concentration 25.0 uM, Number of replicates 1.0.

Among the data in ChEMBL document CHEMBL5606460, “ASAP - DENV-2 NS2B-NS3 protease fluorescence single point” (2024) are inhibition values, retold here.

The structures appear in SMILES notation. Hit rate of the full screen: of about 2,000 compounds, about 110 (5.5%) showed an effect of 50% or more. The list shows a part of the results.

Consider `Cn1cc(CNC(=O)c2ccccc2CN)cn1`, for which the inhibition is -1.53% (Thailand/16681/1984, Concentration 49.5 uM, Number of replicates 2.0, Standard deviation 4.704758964680012 %); -6.84% (Thailand/16681/1984, Concentration 99.01 uM, Number of replicates 2.0, Standard deviation 3.3738585950449482 %); -5.39% (Thailand/16681/1984, Concentration 198.0 uM, Number of replicates 2.0, Standard deviation 1.4794083306984744 %). Turning to `O=C(Cc1c[nH]c2cnccc12)N1CC[C@H](c2c[nH]c3ccccc23)C1`, the inhibition was 1.23% (Thailand/16681/1984, Concentration 49.5 uM, Number of replicates 2.0, Standard deviation 0.795046349191922 %); 2.08% (Thailand/16681/1984, Concentration 99.01 uM, Number of replicates 2.0, Standard deviation 0.6425272725557302 %); 4.32% (Thailand/16681/1984, Concentration 198.0 uM, Number of replicates 2.0, Standard deviation 0.5377573721218945 %). For the compound `O=Cc1ccc(N2CCC(C(=O)N[C@@H](CO)Cc3ccccc3)CC2)cc1`, the inhibition under setting [1] stood at 15.5%. Regarding `Cc1ccc(CN(CCN(C)C)C(=O)C2CCN(c3ccc(C=O)cc3)CC2)s1`, the inhibition under setting [1] is 13.2%. In the case of `Cc1cc(CO)c2cccc(Cc3ccccc3NC(=O)[C@@H](N)CC(N)=O)c2n1`, the inhibition reads like this: (Thailand/16681/1984, Concentration 49.95 uM, Number of replicates 2.0, Standard deviation 0.9388389208439332 %) 28.9%; (Thailand/16681/1984, Concentration 99.9 uM, Number of replicates 2.0, Standard deviation 1.1783962129832455 %) 59.7%. For `CCCCN(Cc1ccc(F)cc1)C(=O)C1CCN(c2ccc(C=O)cc2)CC1`, the inhibition under setting [1] was determined as 16.4%.

`O=S(=O)(c1ccc(Oc2ccccc2Cl)cc1)N1CCc2[nH]c3ccc(Cl)cc3c2C1`: the inhibition reads like this: (Thailand/16681/1984, Concentration 49.5 uM, Number of replicates 2.0, Standard deviation 1.0628105882845442 %) 0.501%; (Thailand/16681/1984, Concentration 99.01 uM, Number of replicates 2.0, Standard deviation 1.9343048300605572 %) 3.48%; (Thailand/16681/1984, Concentration 198.0 uM, Number of replicates 2.0, Standard deviation 0.8704625712181634 %) 8.23%. Take `Cc1cc(CO)c2cccc(Cc3ccccc3C(=O)Nc3cccc(C(N)=O)c3)c2n1`: the inhibition reads like this: (Thailand/16681/1984, Concentration 49.95 uM, Number of replicates 2.0, Standard deviation 0.1803817681308647 %) 4.23%; (Thailand/16681/1984, Concentration 99.9 uM, Number of replicates 2.0, Standard deviation 0.18828716821235608 %) 9.06%.

On to `O=Cc1ccc(N2CCC(C(=O)Nc3ccc(Br)c(Cl)c3Cl)CC2)cc1`, for which the inhibition under setting [1] came to 11.4%. Take `Cc1cc(C(N)=O)c2cccc(Cl)c2n1`: the inhibition runs as follows: (Thailand/16681/1984, Concentration 49.95 uM, Number of replicates 2.0, Standard deviation 7.126306314460823 %) -2.36%; (Thailand/16681/1984, Concentration 99.9 uM, Number of replicates 2.0, Standard deviation 6.288884680839078 %) 0.295%. Turning to `CN(C)Cc1cccc(C(=O)Nc2cc(Cl)cc(C(=O)NC(C)(C)CO)c2)c1`, the inhibition by setting is: (Thailand/16681/1984, Concentration 49.5 uM, Number of replicates 2.0, Standard deviation 3.5461007109102978 %) -1.4%; (Thailand/16681/1984, Concentration 99.01 uM, Number of replicates 2.0, Standard deviation 3.950653726956785 %) -0.545%; (Thailand/16681/1984, Concentration 198.0 uM, Number of replicates 2.0, Standard deviation 4.3168300986790715 %) 0.264%. With `CN(Cc1nc2ccsc2c(=O)[nH]1)C(=O)C1CCN(c2ccc(C=O)cc2)CC1`, the inhibition under setting [1] was determined as 11.8%. For `O=Cc1ccc(N2CCC(C(=O)N[C@H](c3ccccc3)c3ccco3)CC2)cc1`, the inhibition under setting [1] is 10.1%.

Regarding `c1ccc2c([C@H]3CCN(CC4CCOCC4)C3)c[nH]c2c1`, the inhibition runs as follows: (Thailand/16681/1984, Concentration 49.5 uM, Number of replicates 2.0, Standard deviation 3.3259684587077474 %) -2.08%; (Thailand/16681/1984, Concentration 99.01 uM, Number of replicates 2.0, Standard deviation 2.8143910019334557 %) -1.51%; (Thailand/16681/1984, Concentration 198.0 uM, Number of replicates 2.0, Standard deviation 3.0084374948479766 %) -0.345%. `O=Cc1ccc(N2CCC(C(=O)NC3CN(C(c4ccccc4)c4ccccc4)C3)CC2)cc1`: the inhibition under setting [1] came to 2.62%.

As for `CCCC[C@H](NC(C)=O)C(=O)N[C@H](C(=O)NCc1ccc(C(N)=O)cc1)c1ccc(OCc2ccccc2)cc1`, the inhibition (Thailand/16681/1984, Concentration 49.5 uM, Number of replicates 2.0, Standard deviation 4.54767597440597 %) was determined as 18.2%; the inhibition (Thailand/16681/1984, Concentration 99.01 uM, Number of replicates 2.0, Standard deviation 0.08657569598756192 %) worked out at 99.9%; the inhibition (Thailand/16681/1984, Concentration 198.0 uM, Number of replicates 2.0, Standard deviation 0.08274539039489186 %) is 99.7%. `Cn1cc(NC(=O)c2ccccc2C(F)(F)F)c(-c2ccc(O)cc2)n1`: the inhibition by setting is: (Thailand/16681/1984, Concentration 49.5 uM, Number of replicates 2.0, Standard deviation 1.4149767575059302 %) -3.58%; (Thailand/16681/1984, Concentration 99.01 uM, Number of replicates 2.0, Standard deviation 0.6191126751592 %) -2.21%; (Thailand/16681/1984, Concentration 198.0 uM, Number of replicates 2.0, Standard deviation 0.2617465963559337 %) -3.21%.

As to `CC(C)Nc1nc2ccc(C(=O)Nc3ccc(-c4cc[nH]c4)cc3)cc2[nH]1`, the inhibition (Thailand/16681/1984, Concentration 49.5 uM, Number of replicates 2.0, Standard deviation 2.5624181333066525 %) worked out at 4.33%; the inhibition (Thailand/16681/1984, Concentration 99.01 uM, Number of replicates 2.0, Standard deviation 1.869489889133958 %) came out at 9.53%; the inhibition (Thailand/16681/1984, Concentration 198.0 uM, Number of replicates 2.0, Standard deviation 0.5444811431585344 %) stood at 3.37%. `Cc1cc(N)cc(CNC(=O)Cc2cccc3c(CO)cc(C)nc23)c1`: the inhibition is, setting by setting: (Thailand/16681/1984, Concentration 49.95 uM, Number of replicates 2.0, Standard deviation 0.21775017554498763 %) 39.7%; (Thailand/16681/1984, Concentration 99.9 uM, Number of replicates 2.0, Standard deviation 1.7887257377938661 %) 61.7%.

`O=Cc1ccc(N2CCC(C(=O)N[C@H]3CC(=O)N(c4ccccc4Cl)C3)CC2)cc1`: the inhibition under setting [1] stood at 14.7%. Turning to `Cc1ccc2[nH]cc(CCNC(=O)C3CCN(c4ccc(C=O)cc4)CC3)c2c1`, the inhibition under setting [1] was 13.2%.

For orientation: inhibition means the change of the read-out against control, counted positive when it falls.
